The results in this text go back to US20250043015A1 (SHENGHE CHINA BIOPHARMACEUTICAL, published 2025).

Positions count from the first letter of the chain named.

The chains are these.
B1: Antibody 18 (Fc fusion)
heavy: EVQLVESGGGLVQPGGSLRLSCAASGSRLDYYAVAWFRQAPGKEREEVSCITYSGGSTNYADSVKGRFTISRDNSKNTLYLQMNSLRAEDTAVYYCTTEPYGSSCPLSGYDTWGQGTLVTVSS[human IgG1 Fc omitted here]
notes: Humanized antibody
B2: Antibody 20 (Fc fusion)
heavy: B1 heavy with F37V, R45L
notes: Humanized antibody
B3: Antibody 19 (Fc fusion)
heavy: B1 heavy with D62E
notes: Humanized antibody
B4: Antibody 21 (Fc fusion)
heavy: B1 heavy with F37V, R45L, D62E
notes: Humanized antibody
B5: Antibody 17 (Fc fusion)
heavy: B1 heavy with S75A, T78M, L79V, S85K, R87K, A88P, V93R, L118Q
notes: Humanized antibody

One experiment addresses T1, Recombinant human TNFR2-His Tag protein (Sino, Cat: 10417-H08H) (human, UniProt P20333 23-257).
T1 construct: Bought protein; also called human TNFR2-His protein; not shown: His tag
T1 sequence (looked up): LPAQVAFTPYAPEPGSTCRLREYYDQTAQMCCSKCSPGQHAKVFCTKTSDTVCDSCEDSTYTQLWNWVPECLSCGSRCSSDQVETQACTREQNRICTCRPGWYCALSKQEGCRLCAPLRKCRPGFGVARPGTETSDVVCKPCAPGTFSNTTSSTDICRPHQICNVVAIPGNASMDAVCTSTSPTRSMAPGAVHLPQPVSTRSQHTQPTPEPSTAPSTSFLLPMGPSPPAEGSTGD
Briefly: ELISA, Human-TNFR2-His coated at 0.5 µg/mL, anti-human IgG-HRP.
The EC50 is the midpoint of the concentration-response curve. In the case of B1, the EC50 turned out to be 11.6 ng/mL. Still for that read-out and setting: to B2 belongs 6.13 ng/mL; to B3, 3.06 ng/mL; to B4, 17.4 ng/mL.

The next experiment addresses T1, Recombinant human TNFR2-His Tag protein …. In words: BLI (Octet Red96e), antibody on AHC sensor, 100 nM human TNFR2-His; column head 'single concentration'; unit inferred. (In general: Biolayer interferometry detects binding as a change in optical thickness at a sensor tip.)
The Kd is a measure of binding affinity in units of concentration. Take B1: the Kd is 1.09 nM. As to B2, the Kd was determined as 6.49 nM. On the same count and under the same terms, the same measure for B3: 1.03 nM; for B5: 1.1 nM. Still for that read-out and setting: the same measure for B4: 5.5 nM.
